Measurements as given in the antibiotic and cytotoxicity screens of Wong et al. (2023).
The other results are listed elsewhere or left out.

Experiments:
[1] = system: HSkMC (human skeletal muscle cells); assay: cytotoxicity call (relative viability < 0.9); conditions: 10 µM
[2] = system: HepG2; assay: cytotoxicity call (relative viability < 0.9); conditions: 10 µM
[3] = system: S. aureus RN4220; assay: growth inhibition call (relative growth <= 0.2); conditions: 50 µM

What does the source list for `Cc1noc(C)c1NC(=O)N(C)C[C@@H]1OCCCC[C@@H](C)Oc2ccc(NC(=O)Cc3ccccc3)cc2C(=O)N([C@H](C)CO)C[C@@H]1C`?
cytotoxicity call [1]: inactive; cytotoxicity call [2]: inactive; growth inhibition call [3]: inactive

Which results are given for `C[C@@H]1CN([C@H](C)CO)C(=O)Cc2cc(NC(=O)Nc3ccc(F)cc3)ccc2O[C@@H]1CN(C)Cc1ccc(Cl)c(Cl)c1`?
cytotoxicity call [1]: active; cytotoxicity call [2]: active; growth inhibition call [3]: inactive

Which results are given for `COc1cccc(S(=O)(=O)Nc2ccc3c(c2)[C@@H]2C[C@@H](CC(=O)N4CCCCC4)O[C@H](CO)[C@@H]2O3)c1`?
cytotoxicity call [1]: inactive; cytotoxicity call [2]: inactive; growth inhibition call [3]: inactive

How did the cytotoxicity call [1] turn out when `C[C@H](CO)N1C[C@H](C)[C@@H](CN(C)Cc2ccc(-c3ccccc3)cc2)Oc2ccc(NC(=O)Cn3cnnn3)cc2C1=O` was run?
Its cytotoxicity call is “inactive”.

And the cytotoxicity call [2]?
The cytotoxicity call was “inactive”.

And the growth inhibition call [3]?
The growth inhibition call was “inactive”.

With `COc1ccc(CN(C)C[C@H]2OCCCC[C@@H](C)Oc3ccc(NC(=O)Nc4ccc(C(F)(F)F)cc4)cc3C(=O)N([C@H](C)CO)C[C@H]2C)cc1` as the molecule, how does the cytotoxicity call [1] read?
Its cytotoxicity call is “active”.

What about the cytotoxicity call [2] of the same molecule?
Its cytotoxicity call is “active”.

What about the growth inhibition call [3] of the same molecule?
The growth inhibition call was “inactive”.

With `C[C@@H]1CCCCO[C@H](CN(C)C(=O)Nc2ccc(C(F)(F)F)cc2)[C@@H](C)CN([C@H](C)CO)C(=O)c2cc(NC(=O)C3CCCCC3)ccc2O1` as the molecule, how does the cytotoxicity call [1] read?
Its cytotoxicity call is “inactive”.

What about the cytotoxicity call [2] of the same molecule?
Its cytotoxicity call is “inactive”.

And the growth inhibition call [3]?
The growth inhibition call was “inactive”.

For `C[C@@H]1CN([C@H](C)CO)C(=O)c2cc(NS(=O)(=O)c3ccc(F)cc3)ccc2O[C@@H]1CN(C)Cc1ccc(Cl)c(Cl)c1`, which cytotoxicity call [1] is on record?
The cytotoxicity call was “inactive”.

And the cytotoxicity call [2]?
Its cytotoxicity call is “inactive”.

And the growth inhibition call [3]?
Its growth inhibition call is “inactive”.

How did the cytotoxicity call [1] turn out when `C[C@H]1CCCCO[C@@H](CN(C)Cc2ccc(C(F)(F)F)cc2)[C@@H](C)CN([C@@H](C)CO)C(=O)c2cc(NC(=O)Nc3ccccc3)ccc2O1` was run?
Its cytotoxicity call is “active”.

What about the cytotoxicity call [2] of the same molecule?
The cytotoxicity call was “active”.

And the growth inhibition call [3]?
The growth inhibition call was “inactive”.
